Results from PubChem BioAssay AID686971 (National Center for Advancing Translational Sciences (NCATS), 2013).
Among all 360,000 compounds or so, about 7,500 (2.1%) were called active. Inconclusive means that the source gave no clear call. Such entries were picked first, then a sample of the others. Calls follow the shape of the dose curve; as a rule, active = well fitted cell-killing curve with a large enough effect; inconclusive = small, poorly fitted or top-dose-only effect, or effect the other way, or another doubt; inactive = no such curve, though single readings can be large or run the other way. Potencies of inconclusive entries are left out as doubtful fits.

Experiment: qHTS for induction of synthetic lethality in tumor cells producing 2HG: qHTS for the HT-1080-IDH1KD cell line;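 as to activity, negative = toxicity: 0% = DMSO wells and -100% = cell-free medium wells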
Conditions: HT-1080 IDH1 knockdown viability, ATP luminescence, 48 h; activity, negative = toxicity: at 46.1 µM (top of the series) unless noted
Outline: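 IDH1KD HT-1080 cells, 750/well, RPMI + 5% FBS; compound pinned after 2 h settling; 48 h, 37 °C; CellTiter-Glo luminescence; % activity normalised to DMSO and no-cell wells; curves fitted, classed by r2 and efficacy.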
Potency is read from the fitted curve at half-maximal effect; tags tell the direction and shape of the fitted curve.

Compound | Potency | activity, negative = toxicity
Cn1c2ccccc2c(=O)c2c(=O)n(Cc3ccco3)c(-c3ccc(F)cc3)nc21 | inconclusive [cytotoxic, single point] | –
COc1ccc(-c2csc(NC(=O)C3=COCCO3)n2)cc1OC | – | inactive: 1.03%
Cc1ccccc1NC(=O)C(=O)Nc1ccccc1C | inconclusive [rising, partial curve, poor fit] | –
Cc1cccc(NC(=S)NC(=O)CCc2ccccc2)c1C | inconclusive [cytotoxic, single point] | –
COc1ccc(-c2cc(C(=O)N3CCCc4ccccc43)no2)cc1 | – | inconclusive: 14.3%
COc1ccc(/C=C/C(=O)c2cc(F)ccc2OC(=O)c2ccc(OC)c(OC)c2)cc1OC | inconclusive [cytotoxic, single point] | –
CCOC1=C2[C@H](c3ccccc3)N(S(=O)(=O)c3ccc(C)cc3)C(C(C)(C)C)[C@H]2C(C#N)(C#N)C(C#N)(C#N)C1 (stereo not given in full) | inconclusive [cytotoxic, single point] | –
Cc1[nH]c2ccccc2c1/C=C/c1nc2ccccc2c(=O)n1-c1cccc([N+](=O)[O-])c1 | inconclusive [cytotoxic, single point] | –
COc1ccc(C(=O)N2CCCC2)cc1 | – | inactive: 11.5%
CCOc1cc2[nH]c(=S)n(Cc3ccc(C(=O)NCCN(CC)CC)cc3)c(=O)c2cc1OCC | inconclusive [cytotoxic, single point] | –
COc1ccc(-c2noc(CN(C)S(=O)(=O)c3ccc(Cl)cc3)n2)cc1OC | – | inactive: -26.6%
Cc1ccc(Nc2nc(-c3c(C)nc4ccccn34)cs2)cc1 | inconclusive [cytotoxic, partial curve, poor fit] | –
O=C(N/N=C\c1ccc(CNS(=O)(=O)c2ccccc2)o1)C(=O)Nc1ccc(F)cc1 | – | inactive: -17.1%
O=C(Cc1ccc(NC2=NC3CS(=O)(=O)CC3S2)cc1)N1CCN(c2ccc(F)cc2)CC1 (stereo not given) | – | inactive: 8%
CCCCCCCCN1C(=O)[C@H](CC(=O)NCCCC)C[C@@]2(C(=O)OC)CCCCC=C12 | inconclusive [cytotoxic, single point] | –
O=[N+]([O-])c1c(Nc2ccccc2O)cc(Cl)c2nonc12 | active: 5.8 µM | –
COc1ccc(C2c3cc4c(cc3OC(N3CCOCC3)C2C)OCO4)c(OC)c1 (stereo not given) | inconclusive [cytotoxic, single point] | –
NC(=O)c1cccc(-c2ccnc3c2CC(C(=O)Nc2cccc(Oc4ccccc4)c2)O3)c1 (stereo not given) | active: 23.1 µM | –
CCOCC(=O)Nc1cc(-c2cn3cccnc3n2)ccc1C | – | inconclusive: 30.7%
CC(=O)n1cc(/C=N/NC(=O)c2sc(C)nc2C)c2ccccc21 | inconclusive [cytotoxic, partial curve] | –
CN(C)c1cc[n+](CC(=O)Nc2ccc(OC(F)F)cc2)cc1 | inconclusive [cytotoxic, single point] | –
Cc1c(NC(=O)CN2C(=O)NC(C)(c3ccc4c(c3)OCCO4)C2=O)c(=O)n(-c2ccccc2)n1C (stereo not given) | – | inactive: 12.6%
CC(=O)Oc1ccccc1C1C[C@]2(C)CC(=O)NC2N1C(C)=O (stereo not given in full) | – | inactive: 11.6%

Compound | Potency | activity, negative = toxicity
O=C(Nc1cccc(-c2ccc(F)cc2)c1)C1CCCN(Cc2cccnc2)C1 (stereo not given) | active: 18.4 µM | –
CN(C)CCNc1ccc2ncn3c4ccc(O)cc4c(=O)c1c23 | active: 20.6 µM | –
O=C1CN(C(=O)CN2CCN(S(=O)(=O)c3ccccc3)CC2)c2ccccc2N1 | – | inactive: 11.1%
Cc1ccc(CNC(=O)[C@H](Cc2ccccc2)NC(=O)C2CCNCC2)cc1 | – | inconclusive: -3.42% [cytotoxic]
CCn1c2ccccc2c2cc(C3N=C(N)Nc4nc5ccccc5n43)ccc21 (stereo not given) | – | inactive: 25.8%
COc1ccc(CCC(=O)N2c3ccccc3N=C(c3ccc4c(c3)OCO4)C2C(=O)NCc2ccccc2)cc1 (stereo not given) | – | inactive: -0.75%
O=C(Cn1cc(C(F)(F)F)ccc1=O)N/N=C/c1ccc(Cl)cc1 | – | inactive: -15.5%
CCCC(=O)NC(c1ccc(Cl)cc1)c1ccc2cccnc2c1O (stereo not given) | inconclusive [cytotoxic, full curve] | –
Cc1cccc(C(=O)Nc2nnc(-c3ccc(C(C)(C)C)cc3)s2)c1 | inconclusive [cytotoxic, partial curve] | –
CCOc1ccc2[nH]c3c(N4CCC5(CC4)OCCO5)ncnc3c2c1 | active: 23.1 µM | –
C=CCNC(=S)N/N=C/c1ccc(N(CC)Cc2ccccc2)cc1 | inconclusive [cytotoxic, partial curve] | –
O=C(CN1CCCC1c1cccs1)Nc1cc(S(=O)(=O)N2CCCCC2)ccc1Cl (stereo not given) | inconclusive [cytotoxic, single point] | –
C=CCn1c(SCC(=O)Nc2ccccc2F)nc2ccccc2c1=O | – | inactive: -5.09%
CCn1c(=O)cc(SCC(=O)N2CCN(c3ccccc3OC)CC2)c2ccccc21 | inconclusive [cytotoxic, single point] | –
CCO[C@H]1OC(C(=O)NCc2nc3ccccc3[nH]2)=C[C@@H](c2csc3ccccc23)[C@@H]1CCCO | inconclusive [cytotoxic, single point] | –
CN1C/C(=C/c2ccccc2[N+](=O)[O-])C(=O)/C(=C\c2ccccc2[N+](=O)[O-])C1 | active: 3.66 µM | –
O=C(c1ccco1)N1CCN(c2ncnc3scc(-c4ccc(F)cc4)c23)CC1 | inconclusive [cytotoxic, partial curve] | –
Cc1cccc(N2CCN(C(=O)CSCc3c(C)noc3C)CC2)c1C | inconclusive [cytotoxic, single point] | –
CCC(c1nnnn1Cc1ccco1)N(Cc1cc2cc(OC)ccc2[nH]c1=O)C1CCCCC1 (stereo not given) | inconclusive [cytotoxic, partial curve] | –
COc1ccc(OC)c(Nc2cc3ccccc3c(=O)[nH]2)c1 | active: 18.4 µM | –
O=C(COC(=O)c1ccc(S(=O)(=O)N2CCCC2)cc1)Nc1ccc(F)cc1F | – | inactive: 10.2%
CSc1ccc(Cn2nnc(C(=O)NCCc3ccc(Cl)cc3)c2N)cc1 | inconclusive [cytotoxic, single point] | –
